Assay results: paper PMC4336329 (PLoS ONE, 2015)
About 14,000 (4.5%) of roughly 310,000 compounds showed an effect of 50% or more. The effect is printed as a negative number. The list shows a part of the results.

These compounds were tested against human ether-à-go-go-related gene (hERG) potassium channel (human, UniProt Q12809) (assay: primary screen, population patch clamp on CHO cells stably expressing hERG).
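Note: peak tail current of the secondary pulse compared with the same well before compound.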

Chain of human ether-à-go-go-related gene (hERG) potassium channel (Q12809 whole entry, looked up): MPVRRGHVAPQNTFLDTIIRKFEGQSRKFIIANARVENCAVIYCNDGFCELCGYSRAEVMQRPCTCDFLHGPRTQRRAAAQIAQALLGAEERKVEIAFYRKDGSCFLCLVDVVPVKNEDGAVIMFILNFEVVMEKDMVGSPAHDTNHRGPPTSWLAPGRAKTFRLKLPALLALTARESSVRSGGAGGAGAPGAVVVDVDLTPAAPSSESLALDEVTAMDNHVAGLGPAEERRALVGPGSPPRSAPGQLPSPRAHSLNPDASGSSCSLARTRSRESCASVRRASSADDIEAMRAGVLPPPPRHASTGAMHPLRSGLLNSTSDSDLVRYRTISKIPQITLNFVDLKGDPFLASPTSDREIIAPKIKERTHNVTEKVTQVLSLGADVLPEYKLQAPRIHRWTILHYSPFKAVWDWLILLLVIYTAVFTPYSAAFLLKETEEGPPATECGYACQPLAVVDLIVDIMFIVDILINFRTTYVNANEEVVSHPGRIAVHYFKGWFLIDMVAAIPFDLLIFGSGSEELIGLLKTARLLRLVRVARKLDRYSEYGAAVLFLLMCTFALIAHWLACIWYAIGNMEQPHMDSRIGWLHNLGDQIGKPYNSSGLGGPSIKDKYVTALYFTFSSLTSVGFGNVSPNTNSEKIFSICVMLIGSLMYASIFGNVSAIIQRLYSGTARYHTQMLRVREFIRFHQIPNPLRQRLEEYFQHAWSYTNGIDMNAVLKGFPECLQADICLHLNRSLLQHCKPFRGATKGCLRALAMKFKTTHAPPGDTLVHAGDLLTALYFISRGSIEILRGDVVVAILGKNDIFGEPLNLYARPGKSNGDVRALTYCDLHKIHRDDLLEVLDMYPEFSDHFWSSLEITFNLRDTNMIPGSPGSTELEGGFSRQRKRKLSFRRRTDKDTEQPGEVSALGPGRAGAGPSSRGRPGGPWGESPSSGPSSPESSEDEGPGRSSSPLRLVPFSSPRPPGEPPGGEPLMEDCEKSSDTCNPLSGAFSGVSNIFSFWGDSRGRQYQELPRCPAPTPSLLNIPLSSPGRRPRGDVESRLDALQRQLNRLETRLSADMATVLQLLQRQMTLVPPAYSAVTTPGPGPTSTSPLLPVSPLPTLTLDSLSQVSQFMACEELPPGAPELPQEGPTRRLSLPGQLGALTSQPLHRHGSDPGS

| Structure (SMILES) | hERG current change (%, negative = inhibition) at 10uM [%] |
| --- | --- |
| CC(C)N(C)NC(=S)Nc1ccccc1 | 25.1 |
| CC1C(=O)CC(c2ccccc2)NC1c1ccccc1 (stereo not drawn) | -7.08 |
| O=C(C1=C[C@@H](c2ccc3c(c2)OCO3)C[C@@H](OCc2ccc(CO)cc2)O1)N1CCOCC1 | -11.1 |
| Cc1nn(C)c(C)c1S(=O)(=O)N1CCCC(C(=O)NC2CCCCC2)C1 (stereo not drawn) | -5.2 |
| C/C(N)=C(/C#N)C(=O)COC(=O)C1=NN(c2ccccc2)C(=O)CC1 | 20.3 |
| C/C(CCc1ccccc1)=N\NC(=O)C1C2CCCCC21 (stereo not drawn) | -0.194 |
| CC(C)(C)CC(=O)Nc1nnc(SCC(=O)NC2CCCC2)s1 | 8.3 |
| CC(=O)Nc1nc(COc2ccc3ccccc3c2)cs1 | 22.4 |
| Cc1nc(SCC(=O)Nc2cc(C(N)=O)cc(C(N)=O)c2)c2c(C)c(C)sc2n1 | 13.9 |
| CCN(Cc1ccccc1)S(=O)(=O)c1nc2nc(C)c(C)c(C)n2n1 | -11.3 |
| O=C(CSc1nnc(COc2ccc(Cl)cc2)o1)N1CCN(c2ccccc2)CC1 | -1.37 |
| O=C/C(=C\Nc1ccccn1)c1nc2ccccc2o1 | -18.8 |
| O=C(CCC(=O)Nc1ccc(F)cc1)N/N=C/c1cccs1 | 3.36 |
| COc1cc(NS(=O)(=O)c2ccc(NC(=S)NC(=O)c3ccco3)cc2)ncn1 | 20.4 |
| COC(=O)CON1C(=O)c2ccccc2C1=O | -5.6 |
| CN(Cc1ccc2ccccc2c1)C(=O)c1ccc(C(F)(F)F)cc1 | 26.1 |
| Cc1[nH]c(C)c(S(=O)(=O)NCc2ccccc2Cl)c1C(=O)N1CCCC1 | -5.27 |
| CCOC(=O)[C@H](CCc1ccccc1)N[C@H]1CCc2ccccc2N(CC(=O)O)C1=O.Cl | 6.32 |
| O=C(Nc1ccc(-n2nncc2-c2ccco2)cc1)c1ccc(F)cc1 | -1.17 |
| CCn1c(C)cc2c(c1=O)C(c1ccc3c(c1)OCO3)C(C#N)=C(N)O2 (stereo not drawn) | -2.27 |
| O=C(NCCc1nc2ccccc2[nH]1)c1ccc(F)cc1 | -20 |
| Clc1ccc2nc(-c3cccc(SC4CCCCC4)c3)c(NCc3ccccc3)n2c1.O=C(O)C(F)(F)F | 2.82 |

| Structure (SMILES) | hERG current change (%, negative = inhibition) at 10uM [%] |
| --- | --- |
| CCC(C(=O)c1ccc(O)cc1)c1ccccc1 (stereo not drawn) | -5.56 |
| [Br-].c1ccc(Nc2scc(-c3ccccc3)[n+]2Cc2ccco2)cc1 | 9.79 |
| O=C(Nc1ccc(Cl)cc1)C1=Cc2cc(Cl)ccc2OC1 | -1.36 |
| Cc1ccc(S(=O)(=O)N2CCC(C(=O)NCCCN3CCCCCC3)CC2)cc1 | -19.7 |
| CCOC(=O)C1=NN(C(=O)Nc2ccc(OC)cc2)C2C(=O)N(c3cccc(C(F)(F)F)c3)C(=O)C12 (stereo not drawn) | -0.712 |
| CC(C)C(=O)NNC(=O)c1csc(CS(=O)(=O)c2ccc(Cl)cc2)n1 | -1.62 |
| CCCCn1c(=O)[nH]c2nc3cc(NC(C)=O)ccc3nc2c1=O | 13.3 |
| COc1cccc(C(=S)N2CCOCC2)c1OS(=O)(=O)c1ccc(Cl)cc1 | 3.26 |
| Cc1cc(NC(=O)c2ccc(C#N)cc2)n(-c2ccccc2)n1 | -8.03 |
| COc1ccc(C2=NN(C(=O)CCCC(=O)O)C(c3cn(-c4ccccc4)nc3-c3ccccc3)C2)cc1 (stereo not drawn) | -9.6 |
| COC(=O)CSc1ncc(OC)c(OC)n1 | 1.27 |
| CCC1/C(=N\O)CC(c2ccco2)NC1c1ccco1 (stereo not drawn) | 2.76 |
| Cc1ccc(N(CC(O)CN2CCCCC2)S(=O)(=O)c2ccc(C)cc2)cc1 (stereo not drawn) | 13.8 |
| COc1ccc(NC(=O)c2cnc(C)cn2)cc1-n1cnnn1 | 7.84 |
| CC(=O)Nc1cccc(NC(=O)C(=O)NCC(c2ccco2)N2CCc3ccccc32)c1 (stereo not drawn) | -8.78 |
| CCn1c(CSCc2c(Cl)cccc2Cl)n[nH]c1=S | 21.6 |
| C[n+]1ccc(C(=O)Nc2ccccc2Cl)cc1.[I-] | 33.8 |
| CC(=O)n1nc(-c2cccc(C)c2)nc1SCC(=O)Nc1ccccc1 | -0.298 |
| Nc1ccc(Br)cc1Br | 14.2 |
| Fc1cnc(N2CCOCC2)nc1NCc1ccccc1 | 10.6 |
| CCCCCCCn1c(=O)c(C(=O)Nc2cnccn2)c(O)c2ccccc21 | 4.21 |
| CCSc1cc(N2CCCC2)nc(-c2ccc(Cl)cc2)n1 | 22.8 |

| Structure (SMILES) | hERG current change (%, negative = inhibition) at 10uM [%] |
| --- | --- |
| S=C(NCc1ccccc1)NCc1ccc(Cl)cc1 | 12.6 |
| CS(=O)(=O)N1CCC(Oc2ccccc2C(=O)NCCCc2cccnc2)CC1 | -23.3 |
| CC(=O)Oc1ccc(/C=C(\NC(=O)c2cccc(Br)c2)C(=O)Nc2ccc(C(=O)O)cc2)cc1 | 6.07 |
| CC(C)(C)OC(=O)NC(CC(=O)OCc1ccccc1)C(=O)O (stereo not drawn) | 10.1 |
| Cc1ccc(C(=O)Nc2ccncc2)c(C)c1 | -0.621 |
| CCCc1cc(C(=O)N/N=C/c2ccc(C)o2)c2ccccc2n1 | -9.35 |
| Cc1nn(CC(=O)NCCCN2CCC(Cc3ccccc3)CC2)c(=O)c2cc(-c3ccccc3)nn12 | -77 |
| CN1CCN(C(CNS(=O)(=O)c2ccc(Cl)cc2)c2cccnc2)CC1 (stereo not drawn) | -55.6 |
| CC(=O)Nc1ccc(S(=O)(=O)NCC(=O)NNC(=O)COc2ccccc2Cl)cc1 | 5.59 |
| N#Cc1cnn2cc(CCN3CCOCC3)c(-c3ccc(F)cc3)nc12 | -1.87 |
| CN(C)CCN(C(=O)c1ccc(C(=O)c2ccccc2)cc1)c1nc2cc3c(cc2s1)OCCO3.Cl | -12.4 |
| COc1ccc(N=Nc2nc3ccc(Br)cc3n2C)cc1 | 10.5 |
| CN(C)CCN(CC1CCCN(Cc2ccccc2F)C1)C(=O)c1ccc(Cl)cc1 (stereo not drawn) | -14 |
| S=c1[nH]nc([C@@H]2C[C@H]2c2ccccc2)n1-c1ccccc1 | 4.34 |
| COCCN(Cc1nc2ccccc2c(=O)[nH]1)C(=O)c1cccc(S(=O)(=O)N2CCCC2)c1 | -16.3 |
| CCOC(=O)C1=C(C)N(C)C(=O)NC1c1c(C)nn(-c2ccc(C)cc2)c1Cl (stereo not drawn) | -13.8 |
| CCOC(=O)C(=CNc1nc(-c2ccc3ccccc3c2)cs1)C(=O)OCC | 16 |
| C/C(=N\NC(=O)Cc1c[nH]c2ccccc12)c1ccc2ccccc2c1 | 15.8 |
| CCOc1ccc2nc(NC(=O)C(CCSC)NS(=O)(=O)c3cccs3)sc2c1 (stereo not drawn) | -3.06 |
| CC(=O)N1c2ccc(S(=O)(=O)N3CCCC(C(=O)Nc4cccc(F)c4)C3)cc2CC1C (stereo not drawn) | -22.7 |
| NC(=O)[C@@H]1CCCN1Cc1c(C(=O)N2CCc3ccccc3C2)nc2ccc(Cl)cn12 | -9.37 |
| CC1(C)CC(=O)C=C(NCc2ccc(Cl)c(Cl)c2)C1 | -14.2 |

| Structure (SMILES) | hERG current change (%, negative = inhibition) at 10uM [%] |
| --- | --- |
| Cc1nnc(SCC(=O)NCCc2ccccc2)s1 | 5.36 |
| COC(=O)c1cn(CCC#N)nc1-c1ccc2ccccc2c1 | -5.82 |
| CCCCOc1ccc(C(=O)OCC(=O)Nc2cc(C)c(C)cc2[N+](=O)[O-])cc1 | -8.54 |
| NC(=O)C1=C[C@@H](C2CCCCC2)C[C@@H](OCCCCO)O1 | 4.05 |
| O=C(N/N=C/c1ccc([N+](=O)[O-])o1)c1ccccc1-n1cccc1 | -12 |
| O=C(Cn1c(=O)n(CC2CCCO2)c(=O)c2ccccc21)N1CCN(c2ccccc2)CC1 (stereo not drawn) | -21.8 |
| COc1ccc(O)c(C(=O)c2coc(=N)c(C(=O)Nc3ccc(SC(F)F)cc3)c2)c1 | -69.9 |
| Cc1ccc(NC(=S)/N=C(\N)Nc2nc(C)c3ccccc3n2)cc1C | -10.6 |
| O=C(O)CC(NC(=O)C12CC3CC(CC(C3)C1)C2)c1cccc([N+](=O)[O-])c1 (stereo not drawn) | 12.9 |
| CCOC(=O)C1=C(c2ccccc2)NC(SCC(=O)NC2CCCCC2)=C(C#N)C1c1ccco1 (stereo not drawn) | -1.35 |
| O=C(CSc1nnc(CNC(=O)c2ccc(F)cc2)o1)Nc1ccc2c(c1)OCCO2 | 21.6 |
| CCCC(=O)c1cc2ccccc2oc1=O | -8.47 |
| CCC1CCCCN1C(=O)c1cc2cc(Br)ccc2oc1=O (stereo not drawn) | -25.8 |
| COC(=O)c1ccc(CSc2nnnn2-c2ccccc2)o1 | -6.08 |
| Cc1ccc(N(C)C(=O)N2CCN(S(=O)(=O)c3c(C)cc(C)cc3C)CC2)cc1 | -31.8 |
| CN(C)C(=O)Oc1ccc(OC(=O)N(C)C)cc1 | 2.39 |
| CCC(=O)NC(=S)N1CCN(c2ccc([N+](=O)[O-])cc2Cl)CC1 | -26.4 |
| COc1cc(N2C(=O)NC3CC2(C)Oc2ccccc23)cc(OC)c1OC (stereo not drawn) | 18.3 |
| CC(=O)c1cccc(NC(=S)N2CCCC2)c1 | 9.57 |
| COc1cccc2cc(C(=O)CC3(O)C(=O)N(Cc4ccccc4)c4ccccc43)c(=O)oc12 (stereo not drawn) | 18.8 |
| CCCSc1ncnc2c1oc1ccccc12 | -5.24 |
